{"source": "patent US20240239885A1", "about": "“ANTIBODY CONJUGATE COMPRISING ANTI-P-CADHERIN ANTIBODY AND USES THEREOF” (WUXI BIOLOGICS IRELAND LIMITED, priority 2021, published 2024)", "molecules": {"B1": {"name": "W3195-1.53.1-p1-uIgG1L-MMAE (conjugate)", "heavy": "QVQLQESGPGLVKPSETLSLTCTVSGGSVISDNYYWTWVRQPPGKGLEFIGYIYYRGSTNYNPSLKNRVIISIDTSRNQFSLDLNSVTAADTAVYYCARDRRTGNSLPFDNWGQGTLVTVSSASTKGPSVFPLAPSSKSTSGGTAALGCLVKDYFPEPVTVSWNSGALTSGVHTFPAVLQSSGLYSLSSVVTVPSSSLGTQTYICNVNHKPSNTKVDKRV[human IgG1 Fc not written out]", "light": "SYELTQPPSVSVSPGQTAQITCSGDKLGDKFASWYQQKSGQSPVVVIYQDNKRPSGFPERFSGSNSGNTATLTISGTQAMDEADYYCQAWDSSIVVFGGGTKLTVLGQPKAAPSVTLFPPSSEELQANKATLVCLISDFYPGAVTVAWKADSSPVKAGVETTTPSKQSNNKYAASSYLSLTPEQWKSHRSYSCQVTHEGSTVEKTVAPTECS"}}, "key": {"[1]": {"molecular_target": "T1, P-cadherin expressed on HCT-116 cells (Homo sapiens, UniProt P22223)", "T1 construct": "endogenous in cells; host or cells: HCT-116", "T1 sequence (P22223 108-829)": "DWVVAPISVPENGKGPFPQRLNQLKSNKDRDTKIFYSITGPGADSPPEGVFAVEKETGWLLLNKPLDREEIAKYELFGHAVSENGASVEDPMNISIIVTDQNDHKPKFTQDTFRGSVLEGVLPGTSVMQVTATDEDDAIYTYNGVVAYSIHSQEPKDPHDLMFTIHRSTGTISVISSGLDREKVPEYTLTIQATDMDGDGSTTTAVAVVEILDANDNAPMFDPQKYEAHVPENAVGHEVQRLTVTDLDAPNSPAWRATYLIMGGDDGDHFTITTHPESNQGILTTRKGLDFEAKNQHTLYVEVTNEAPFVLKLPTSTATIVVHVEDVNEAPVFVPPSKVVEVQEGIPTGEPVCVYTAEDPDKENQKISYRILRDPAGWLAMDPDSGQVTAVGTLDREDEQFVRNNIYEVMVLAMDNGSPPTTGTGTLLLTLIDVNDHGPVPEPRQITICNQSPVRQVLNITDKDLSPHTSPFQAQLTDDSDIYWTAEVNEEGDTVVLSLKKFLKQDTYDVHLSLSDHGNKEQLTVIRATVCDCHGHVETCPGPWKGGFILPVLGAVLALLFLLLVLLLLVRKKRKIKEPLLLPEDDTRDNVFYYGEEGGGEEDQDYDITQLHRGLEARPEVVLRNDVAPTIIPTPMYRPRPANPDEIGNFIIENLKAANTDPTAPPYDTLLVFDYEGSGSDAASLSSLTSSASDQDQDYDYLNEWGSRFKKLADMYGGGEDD", "assay": "Target binding (FACS) on HCT-116 cells", "procedure": "Binding of the ADCs to P-cadherin expressed on HCT-116 cells was determined by flow cytometry analysis using the same procedure as described above. In brief, HCT-116 or NCI-H1650 cells were harvested with Versene (Invitrogen, #15040066) and diluted to 1×10^6 cells/ml in 1% BSA (Bovogen, #BSAS)/1×PBS (Ca+/Mg+) (Gibco, #14040-117). 1×10^5 cells/well (100 μL) were added to each well of a 96-well U-plate (Corning, #3799) and centrifuged at 1500 rpm (Eppendorf, #5810R) for 5 minutes before removing the supernatant. Antibodies serially diluted in 1% BSA/1×PBS (Ca+/Mg+) were added at 100 μL/well to the pelleted cells and incubated at 4° C. for 1 hour. A non-related hlgG1 antibody was used as an isotype control. Cells were washed two times with 180 μL/well of 1% BSA/1×PBS (Ca+/Mg+) by centrifugation at 1500 rpm for 5 minutes at 4° C. […] After the final wash, cells were resuspended in 100 μL 1% BSA/1×PBS (Ca+/Mg+) and fluorescence values were measured with a FACS Canto II cytometer (BD Biosciences). The amount of cell surface bound anti-P-Cadherin antibody was assessed by measuring the mean fluorescence (MFI). The FACS raw data were analyzed by FlowJo software, wells containing no antibody or secondary antibody only were used to establish background fluorescence."}, "HT29": {"tested_on": "HT29", "assay": "Non-specific binding (FACS) on HT29", "set-up": "species or system human", "conditions": "HT29, 10 μg/mL", "procedure": "(§1) Human cell lines were seeded in 96-well plates (BD) at a density of 1×10^5 cells/well. 10 μg/mL antibody samples were added to cells and incubated for 1 h at 4° C. After washing, the cells were resuspended and incubated with PE-conjugated goat anti-human IgG Fc antibody (Jackson) for 30 min. After washing and resuspending, mean fluorescence intensity (MFI) was measured by flow cytometry (BD Canto II) and analyzed by FlowJo."}, "HepG2": {"tested_on": "HepG2", "assay": "Non-specific binding (FACS) on HepG2", "set-up": "species or system human", "conditions": "HepG2, 10 μg/mL", "procedure": "as §1"}, "SK-OV-3": {"tested_on": "SK-OV-3", "assay": "Non-specific binding (FACS) on SK-OV-3", "set-up": "species or system human", "conditions": "SK-OV-3, 10 μg/mL", "procedure": "as §1"}, "8505C": {"tested_on": "8505C", "assay": "Non-specific binding (FACS) on 8505C", "set-up": "species or system human", "conditions": "10 μg/mL", "procedure": "as §1"}, "BT474": {"tested_on": "BT474", "assay": "Non-specific binding (FACS) on BT474", "set-up": "species or system human", "conditions": "BT474, 10 μg/mL", "procedure": "as §1"}, "12 human cell lines": {"tested_on": "12 human cell lines", "assay": "Non-specific binding (FACS), panel conclusion", "conditions": "10 μg/mL", "procedure": "as §1"}, "HCC70 breast tumor": {"tested_on": "HCC70 breast tumor", "assay": "Xenografted HCC70 breast tumor model, Study I", "assay_type": "in vivo, SCID-17B female mice", "conditions": "1 mg/kg, intravenous, single dose, vs Isotype control", "procedure": "WBP3195-p1-ADC in efficacy study was tested in HCC70 breast tumor model in SCID-17B female mice. […] The tumor cells were routinely sub-cultured twice a week with 0.25% trypsin-EDTA treatment. The cells growing in an exponential growth phase were harvested and counted for tumor inoculation. The harvested cells were re-suspended in PBS at a density of 1.0×10^8 cells/mL then added the equivalent matrigel (final 1.0×10^7 cells/200 μL/mouse) with viability >90% and subcutaneously implanted into the right front flank of animals.\nThe day of intravenous injection was considered as day 0. For all tumor studies, mice were weighed and tumor growth was measured twice a week using calipers.\nTi is the average tumor volume of a treatment group on a given day. TO is the average tumor volume of the treatment group on the first day of treatment. Vi is the average tumor volume of the vehicle control group on the same day with Ti and V0 is the average tumor volume of the vehicle group on the first day of treatment. Relative change of bodyweight change (RCBW) was calculated with the formula [(BWt−BW0)/BW0]×100%, BW0 is the average bodyweight at day0, BWt is the average bodyweight at a measurement day. […] Data at day 34 were analyzed using Ordinary one-way ANOVA Tukey's multiple comparisons test with Graphpad Prism 6.0 and p<0.05 was considered as statistically significant."}, "NCI-H1650 lung tumor": {"tested_on": "NCI-H1650 lung tumor", "assay": "Xenografted NCI-H1650 lung tumor model", "assay_type": "in vivo, SCID-17B female mice", "conditions": "single dose; for TGI (%) at Day 31: vs PBS", "procedure": "WBP3195-p1-ADC in efficacy study was tested in NCI-H1650 lung tumor model in SCID-17B female mice. Female SCID-17B mice (Shanghai Jihui Laboratory Animal Care Co., Ltd.) of 7-9 week-old were used in the study. NCI-H1650 cells were maintained in vitro as a monolayer culture in RIPM1640 medium supplemented with 10% fetal bovine serum, 100 U/mL penicillin and 100 μg/mL streptomycin at 37° C. in an atmosphere of 5% CO2 in air. The tumor cells were routinely sub-cultured twice a week with 0.25% trypsin-EDTA treatment. The cells growing in an exponential growth phase were harvested and counted for tumor inoculation.\nFor the therapeutic model, each mouse was inoculated subcutaneously at the right front flank with NCI-H1650 tumor cells (0.5×10^7 cells resuspended in 100 ul PBS). When the average tumor volume reached approximately to 137 mm^3 at day22 post inoculation, animals were randomly grouped into 4 groups and each group contained 6 mice. […] The day of intravenous injection was considered as day 0. For all tumor studies, mice were weighed and tumor growth was measured twice a week using calipers.\nAll the procedures related to animal handling, care and the treatment in the study were performed according to the guidelines approved by the Institutional Animal Care and Use Committee (IACUC) of Shanghai SIPPR-BK Laboratory Animal Co., Ltd following the guidance of the Association for Assessment and Accreditation of Laboratory Animal Care (AAALAC)."}}}
{"molecule": "B1", "values": [{"measurement": "Max MFI, FACS binding", "setting": "[1]", "result": 6164}, {"measurement": "MFI, non-specific binding", "setting": "HT29", "result": 26.4}, {"measurement": "MFI, non-specific binding", "setting": "HepG2", "result": 52.6}, {"measurement": "MFI, non-specific binding", "setting": "SK-OV-3", "result": 30.6}, {"measurement": "MFI, non-specific binding", "setting": "8505C", "result": 26.5}, {"measurement": "MFI, non-specific binding", "setting": "BT474", "result": 34.6}, {"measurement": "non-specific binding to human cell lines (in words)", "setting": "12 human cell lines", "result": "no non-specific binding effect"}, {"measurement": "TGI (%), Day 34", "setting": "HCC70 breast tumor", "result": 85.15, "unit": "%"}, {"measurement": "mean tumor volume, 31 days post treatment", "setting": "NCI-H1650 lung tumor; 2.5 mg/kg, intravenous", "result": "1124.80 ± 132.22", "unit": "mm3"}, {"measurement": "TGI (%) at Day 31", "setting": "NCI-H1650 lung tumor; 2.5 mg/kg, intravenous", "result": 38.69, "unit": "%"}, {"measurement": "Tumor free (TV <20 mm^3) at Day 31, n/total", "setting": "NCI-H1650 lung tumor; 2.5 mg/kg", "result": "0/6"}, {"measurement": "average tumor volume, 31 days post treatment", "setting": "NCI-H1650 lung tumor; 5 mg/kg, intravenous", "result": "9.92 ± 3.20", "unit": "mm3"}, {"measurement": "TGI (%) at Day 31", "setting": "NCI-H1650 lung tumor; 5 mg/kg, intravenous", "result": 107.99, "unit": "%"}, {"measurement": "Tumor free (TV <20 mm^3) at Day 31, n/total", "setting": "NCI-H1650 lung tumor; 5 mg/kg", "result": "5/6"}, {"measurement": "tumor free animals observed", "setting": "NCI-H1650 lung tumor; 5 mg/kg", "result": "One tumor free animal"}]}
